Results: the RNAGym collection of RNA variant scans (doi:10.1093/nar/gkz1192)
Read counts are not given, so values of variants with three or more changes are uncertain.

B1: CPEB3 Ribozyme (parent)
chain: UAACAGGGGGCCACAGCAGAAGCGUUCACGUCGCAGCCCCUGUCAGAUUCUGGUGAAUCUGCGAAUUCUGCUGUAUAUCUC

Variants of: B1
Assay: self-cleavage, relative activity (ratio to wild type); higher = more cleavage; in vitro, sequencing
Outline: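 After error-prone PCR and barcoding, CPEB3 ribozyme mutant libraries were transcribed with T7 RNA polymerase at 37°C for 5 hours, then given 15 min with DNase I before an EDTA stop, and they cleaved during both steps. Reverse transcription with template switching preceded Illumina sequencing. Relative activity divides a variant's cleaved/total read fraction by the unmutated ribozyme's. At least 5 reads were required per variant, and three batches were averaged.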

Variant | self-cleavage
A2G C37A U43C A45C U51C | 0.07
A2U A18G G22C U41G U69C | 0.14
A2G G46C A47G U66A C68A U72C | 0.16
A3C U26C U49G C62U U72A U80C | 0.06
A2G U41C U67C U72A | 0.11
A2G C17U U41G U78C | 0.09
A2U C27A U41C A47U A65U | 0.18
A2G A28G C37U A56G A57G U72C | 0.16
A2G G6A A13C C17U U25C | 0.09
A3G A5U U31C A65U A75U | 0.29
A3G A13G A35U C44U | 0.13
A2U U25A U60C U67A | 0.06
A2U U26A U54C U60A | 0.59
A3G A13U U25C U58C | 0.34
A3G A15G G24C U74A | 0.14
A3G A15G A35U G52C U72A | 0.33
A2G A75G U80C | 0.48
A2U A20U U54C U72C U80C | 0.21
A3C G10C G33U A57U C81U | 0.05
A3G A13G C14A A35U U60C U66A | 0.11
A3G A5U U31C U67C | 0.21
A3G A13U G22C A35G U43C A75G | 0.08
A2G U26C U69C | 0.31
A2G U43C U67C | 0.19

Variant | self-cleavage
A2G U26A A28G U54C | 0.33
A3G A5G C32G U43A A56G | 0.07
A3G A15G G19U U26C U43C | 0.25
A3G A5G U26C C50A U67A U72C | 0.16
A2G A45U G63A C81U | 0.33
A2U U31A U51A U69C | 0.14
A2G G36C U51A A65U | 0.06
A3G A13G A21C U26A G46A | 0.09
A2G A35G U41C A47U C71A U72A | 0.13
A3G A15G A56U | 0.57
A3C C40A U41A A47U C68A U74C | 0.28
A2U U25C U54C U69C U78C | 0.21
A2G A56G U67C | 0.11
A2G C34A A35U | 0.25
A2G A21G U31C A45U U69C | 0.34
A2G A47G U54C A77G | 0.41
A2U A3G A35U A45C U67C A75G | 0.05
A2G U31C U74A | 0.67
A2U G8U U49C A57G U78C | 0.14
A3C A13C A21U U26C U43G U49C | 0.08
A3G A13G G19U A35G A75G | 0.09
A3G A5G A18G U54C | 0.31
A2G A65G U76A U80A | 0.25
A2G C11G U26A U72A U76C | 0.08

Variant | self-cleavage
A2U A15U U25C U26C A45G U80C | 0.35
A2G G8A A28G U41A A75U | 0.06
A2G U26C A35G U43C A56G | 1.02
A2G C14A A18G U54C A56U U67C | 0.12
A2G A64G C71G U72C | 0.09
A3C A21G G33A C71G | 0.2
A3G A13G C50U U67C U78C C79U | 0.14
A3G A15G G30U C50A A57C | 0.15
A2G G42U A75U | 0.57
A2U A15U U41C A65G | 0.26
A3G A5G U66C | 0.44
A2U A15G A35G A64U U69A U74A U80G | 0.14
A2U A15G A18C U25C U31A U49A | 0.4
A2G U25A C38U A47U | 0.22
A2G U26C U31A U41C U51A U67C A77U | 0.13
A2G U25C U67C U76C | 0.29
A2G A64U C71A U74A | 0.13
A2G G9A U80C | 0.09
A2U A3G U25C U31C U60A | 0.33
A3G A5C U60C | 0.35
A2G A64U U66C U78A | 0.21
A2U G52U A56G | 0.37
A3G A5G A47G | 0.42
A2U A28U A35G A45G U51C A57G U74A | 0.82

Variant | self-cleavage
A2U A5U A15G | 0.87
A3G A13U G24A U25C A65C | 0.09
A2G A28C U58C U60C | 0.31
A2G A28G U78C | 0.49
A3C G8A U25C U67C U74C | 0.3
A2U A35G U54G | 1.2
A2U A47G U67A | 0.22
A2U G7A C27A U49C | 0.18
A3G A13G U26A A65G | 0.48
A3G A5U A35G | 1.18
A2U U41A U51A | 0.73
A3C A5G U41A A77G | 0.17
A3G A5U A35U U69C | 0.27
A3C A28G U41C | 0.95
A2G U54A C79U | 1
A3G A13G U48A G63A U78C | 0.18
A2U A5G A35U U72A | 0.54
A3G A5G A13U A28U U54C | 0.68
A2G A21G A28G | 0.53
A2G C11A A56G U78A | 0.08
A2G U25C C50A U58A | 0.19
A3G A5G A21G U25A U41A U49C U78A | 0.12
A3G A5G U25C U66G | 0.19
A2G A21U U51C A56G | 0.52

Variant | self-cleavage
A3C A5G A28C | 0.65
A3G A13U C50A | 0.65
A2U A18G A64U U69C | 0.24
A2G U25A U26C A47U A75G | 0.13
A2G A28G A56U A75G | 0.1
A2G A20G U51A U69A | 0.48
A2U G8C G36U U60C | 0.06
A3C U41A A47G G52A U60C | 0.1
A2G G46U U54C A56U U80C | 0.18
A3G A13U A35U | 0.24
A2G A45U A65G C71G C79A U80C | 0.1
A2G C40G U43C | 0.58
A2G U25C A35U A64G | 0.24
A3G A5G U54C C59U A64G | 0.07
A3G A5U C17G A56G U67C U76C | 0.14
A2G U49C U54C U66C U80A | 0.06
A2G C12U U31A U66C U74C A75U U80C | 0.25
A3C U26C U43C G46U | 0.16
A2G A64G A75G | 0.48
A2G U69A U72A A77U | 0.1
A2U A20C A45G U66C | 0.07
A2U U54C A64G U69C G70A | 0.16
A2U A13U A15G U41C | 0.86
A2G G7U A47U A56G U60A G70A | 0.04

Variant | self-cleavage
A2U A3G A18C U80C | 0.52
A3C C50A U72A U74C | 1.24
A2G U26A G61C A65G | 0.14
A3G A5G U31C C44U A56U | 0.03
A2G A28U C32A U51A C71U | 0.19
A2G G6A A13G A21G C29U C40U U78C | 0.06
A3G A5G A21U U31C A57G | 0.1
A3G A13G A35U U48C U54G A65G | 0.14
A2G C11G U43C C62A | 0.09
A3G A13G A21C A28U A45U | 0.31
A2U A20U A28G U51C A57G A75G | 0.1
A3G A13G A35U | 0.42
A3G A5G U49C U51A A77G U78A | 0.14
A2G G9C C71U | 0.08
A2G G6U U60C U69C U78C | 0.22
A2U C12U U58C A64U U66C A75G | 0.14
A3G A15G A18G | 0.64
A2U A35U A75G | 0.42
A2G A35G G42A U60A A64C U72G | 0.13
A2G C4U G55A A57C U58C | 0.11
A2U U25C U26C U48C C62A U80A | 0.23
A2U G8U A13U G42A | 0.07
A2G C23A U26C A28U A35U U54C | 0.05
A2U A21G U26C U54A | 0.14

Variant | self-cleavage
A3G A13G U25A G33U U69C U72C | 0.26
A2G A35C A45U G46A U72C | 0.09
A3G A15G A20U A35G U74A | 0.79
A2G C17U U26C U72C U78C | 0.42
A2U A13G U26C U58G | 0.26
A3C U41C U43A U49C | 0.44
A3C A5G A28G G46A U54G G55U | 0.03
A2U G10A A21U A28U U41A U48C U54G | 0.3
A3C G9U U41A A45U A56U G63A | 0.08
A2G C23U U25A U51A | 0.24
A2G U43C A64G | 0.48
A2G A65G U74C | 0.31
A2U A21G A35C | 0.12
A2U U25A G30A U49C A56G | 0.28
A2G G19U U25C U41A | 0.07
A2G C4U U25A A47G U51A U60C A77G | 0.09
A2U U41A G63A | 0.35
A3G A5G A57U | 0.62
A3G A13G A15U U41A U49C A64U U66C | 0.38
A2U U25C A47U U51C U80C | 0.11
A2G A35G U51A A75U U80C | 1.28
A2U G10A A15C A45G | 0.26
A2G A28G U69C | 0.38
